Assay results as given in PubChem BioAssay (NCATS).
Several values for one entry are separate records, joined by “and”; a condition that tells them apart may be missing. Identical values can stand only once. The shares of active, inactive and inconclusive entries below differ from those in the screen. For some assays here: Potencies of inconclusive entries are doubtful fits and often do not repeat. Activity calls are given as the source filed them. Calls come from the whole dose curve; as a rule, active = well fitted curve in the direction sought with a large enough effect; inconclusive = small, poorly fitted or top-dose-only effect, or another doubt; inactive = no such curve, though single readings can be large; an effect the other way counts as inactive or inconclusive.

Key:
[1] = Viability qHTS for spleen associated tyrosine kinase inhibitor (SYKi) naive MV4-11 cells (AID 1963823); details: MV4-11 AML viability, CellTiter-Glo luminescence, 72 h; viability (% of control): at 45 µM (top of the series); note: nearly all actives have a fitted effect of over 40% in size; note: potency is the fitted concentration of half-maximal effect
Method in brief: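 In this viability screen, compounds acted on SYK inhibitor naive MV4-11 cells for three days (72 hr, 37 C). Remaining viable cells were measured by CellTiter-Glo luminescence following a 10 min room-temperature development.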

[2] = Viability qHTS for spleen associated tyrosine kinase inhibitor (SYKi) drug resistant MV4-11 cells (AID 1963824); details: SYKi-resistant MV4-11 viability, CellTiter-Glo, 72 h; series mostly up to 45 µM; note: nearly all actives have a fitted effect of over 35% in size; note: potency is the fitted concentration of half-maximal effect
Method in brief: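 SYK-inhibitor-resistant MV4-11 AML cells were seeded at 500 per well onto compound and cultured 72 hours (37 °C, 5% CO2). CellTiter-Glo was then added, and after 10 min at room temperature, luminescence gave viability.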

[3] = Quantitative highthroughput screen to assess conditional lethalithy of NOMO1 cells grown in RPMI1640 with dialyzed fetal bovine serum (RPMI+ds) (AID 1963877); details: NOMO1 in RPMI+dialyzed FBS viability, ATP luminescence, 48 h; series mostly up to 45.8 µM; note: nearly all actives have a fitted effect of over 30% in size; note: potency is the fitted concentration of half-maximal effect;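 for Viability: 100% = DMSO control wells and 0% = empty wells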
Method in brief: (§1)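 Each medium arm—HPLM with 10% dialyzed FBS, or RPMI1640 with 5 mM glucose and 10% untreated or dialyzed FBS—was screened against an 11-point, 3-fold compound titration for 48 h at 37 °C, with CellTiter-Glo luminescence as endpoint.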

[4] = Quantitative highthroughput screen to assess conditional lethalithy of NOMO1 cells grown in Human Plasma-Like Medium with dialyzed fetal bovine serum (HPLM+ds) (AID 1963878); details: NOMO1 AML cells in HPLM+ds, CellTiter-Glo viability, 48 h; viability: at 45.8 µM (top of the series); note: nearly all actives have a fitted effect of over 35% in size; note: potency is the fitted concentration of half-maximal effect;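 for Viability: 100% = DMSO wells and 0% = empty wells on each plate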
Method in brief: as §1

[5] = Quantitative highthroughput screen to assess conditional lethalithy of SEM cells grown in Human Plasma-Like Medium with dialyzed fetal bovine serum (HPLM+ds) (AID 1963882); details: SEM B-ALL cells in HPLM+ds, CellTiter-Glo viability, 48 h; series mostly up to 45.8 µM; note: nearly all actives have a fitted effect of over 35% in size
Method in brief: as §1

[6] = Quantitative highthroughput screen to assess conditional lethalithy of P12 Ichikawa cells grown in RPMI1640 with untreated serum (RPMI+s) (AID 1963881); details: ATP luminescence, 48 h; Potency: viability; series mostly up to 45.8 µM; note: nearly all actives have a fitted effect of over 35% in size; note: potency is the fitted concentration of half-maximal effect;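 for Viability: 100% = DMSO wells and 0% = empty wells without cells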
Method in brief: as §1

[7] = Quantitative highthroughput screen to assess conditional lethalithy of SEM cells grown in RPMI1640 with dialyzed fetal bovine serum (RPMI+ds) (AID 1963884); details: SEM B-ALL cells, RPMI+dialyzed FBS, CellTiter-Glo viability, 48 h; viability: at 45.8 µM (top of the series); note: nearly all actives have a fitted effect of over 35% in size; note: potency is the fitted concentration of half-maximal effect;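 for Viability: 100% = DMSO control wells and 0% = empty wells without cells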
Method in brief: as §1

[8] = Cellular viability qHTS for adrenocortical cancer (ACC) cell line SW-13 (AID 1963989); details: SW-13 ACC cells viability, CellTiter-Glo, 48 h; activity (max response): stronger effect = lower value; note: nearly all actives have a fitted effect of over 65% in size; note: potency is the fitted concentration of half-maximal effect;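 for activity (max response): cells grown in serum-free medium with ITS supplement; % is set by controls: 0 for no effect and ±100 for the full control effect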
Method in brief: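 Here, serum-free SW-13 cultures were dosed up to 46 uM. Following 48 h, ATP-dependent luminescence (CellTiter-Glo) reported viable cells, and logistic modeling produced IC50 values.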

[9] = Quantitative highthroughput screen to assess conditional lethalithy of P12 Ichikawa cells grown in Human Plasma-Like Medium with dialyzed fetal bovine serum (HPLM+ds) (AID 1963879); details: ATP luminescence, 48 h; Potency: viability; series mostly up to 45.8 µM; note: nearly all actives have a fitted effect of over 35% in size; note: potency is the fitted concentration of half-maximal effect
Method in brief: as §1

[10] = Quantitative highthroughput screen to assess conditional lethalithy of SEM cells grown in RPMI1640 with unreated serum (RPMI+s) (AID 1963883); details: SEM B-ALL cells, CellTiter-Glo viability, 48 h; viability: at 45.8 µM (top of the series); note: nearly all actives have a fitted effect of over 35% in size; note: potency is the fitted concentration of half-maximal effect;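 for Viability: 100% = DMSO wells and 0% = empty wells without cells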
Method in brief: as §1

[11] = Quantitative highthroughput screen to assess conditional lethalithy of P12 Ichikawa cells grown in RPMI1640 with dialyzed fetal bovine serum (RPMI+ds) (AID 1963880); details: ATP luminescence, 48 h; Potency: P12-Ichikawa viability; series mostly up to 45.8 µM
Method in brief: as §1

[12] = Cellular viability qHTS for adrenocortical cancer (ACC) cell line NCI-H295R (AID 1963990); details: CellTiter-Glo ATP luminescence, 48 h; activity change, negative = viability loss: at 46.1 µM (top of the series); note: potency is the fitted concentration of half-maximal effect; nearly all actives have a fitted effect of over 60% in size
Method in brief: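 Viability of NCI-H295R after 48 h of treatment (final up to 46 uM) measured through cellular ATP luminescence.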
Tags give direction and shape of the fitted curve.

Structure (SMILES) | Potency [1] | Potency [2] | Potency [3] | Potency [4] | Potency [5] | Potency [6] | Potency [7] | Potency [8] | Potency [9] | Potency [10] | Potency [11] | activity (max response) [8] | Potency [12]
CNC[C@H](O)c1ccc(O)c(O)c1 | inconclusive: 14.8 µM [cytotoxic, partial curve, poor fit] | inactive and inconclusive: 16.6 µM [cytotoxic, partial curve, poor fit] | inactive | inactive | inactive | – | – | – | – | – | – | – | –
CCC[C@@H]1C[C@@H](C(=O)N[C@@H]([C@H]2O[C@H](SC)[C@H](O)[C@@H](O)[C@H]2O)[C@@H](C)O)N(C)C1 | inactive | inactive | inactive | inconclusive: 2.35 µM [cytotoxic, single point] | inactive | inactive | inactive | inconclusive: 20.6 µM [cytotoxic, single point] | – | – | – | – | –
OC(Cn1cncn1)(Cn1cncn1)c1ccc(F)cc1F | inactive and inconclusive: 29.5 µM [cytotoxic, single point] | inactive and inconclusive: 14.8 µM [cytotoxic, partial curve, poor fit] | inactive | – | – | inactive | – | – | inactive | inactive | – | – | –
Nc1cc(C(Cl)=C(Cl)Cl)c(S(N)(=O)=O)cc1S(N)(=O)=O | inactive | inconclusive: 20.9 µM [cytotoxic, single point] | active: 7.43 µM | – | – | active: 7.43 µM | – | – | active: 1.18 µM | – | active: 5.26 µM | inactive: -17% and inactive: 6.7% | –
CC(=O)Oc1cc2c(s1)CCN(C(C(=O)C1CC1)c1ccccc1F)C2 (stereo not given) | inconclusive: 33.5 µM [cytotoxic, single point] and inconclusive: 18.6 µM [cytotoxic, partial curve] | inconclusive: 33.5 µM [cytotoxic, single point] and inconclusive: 18.6 µM [cytotoxic, partial curve, poor fit] | inconclusive: 5.26 µM [cytotoxic, full curve] | – | – | inconclusive: 18.7 µM [cytotoxic, partial curve] | inconclusive: 14.8 µM [cytotoxic, partial curve] | – | inconclusive: 33.2 µM [cytotoxic, single point] | inconclusive: 18.7 µM [cytotoxic, partial curve] | – | inactive: -22.6% and inactive: -6.86% | inconclusive: 29.1 µM [cytotoxic, single point]
